Experimental data as given in patent publication US20220403048A1, “BINDING MOLECULES TO ARGINASE II [ARG2]” (Cancer Research Technology Limited, priority 2019, published 2022).

What was measured:
[1] = target: T1, trimeric human ARG2 (Homo sapiens, UniProt P78540); assay: Human trimeric ARG2 enzyme inhibition assay (urea production); assay type: biochemical
T1 construct: human ARG2 (aa23-354); His10 (C); made in house; host or cells: E. coli BL21 (DE3)
T1 sequence (P78540 23-354): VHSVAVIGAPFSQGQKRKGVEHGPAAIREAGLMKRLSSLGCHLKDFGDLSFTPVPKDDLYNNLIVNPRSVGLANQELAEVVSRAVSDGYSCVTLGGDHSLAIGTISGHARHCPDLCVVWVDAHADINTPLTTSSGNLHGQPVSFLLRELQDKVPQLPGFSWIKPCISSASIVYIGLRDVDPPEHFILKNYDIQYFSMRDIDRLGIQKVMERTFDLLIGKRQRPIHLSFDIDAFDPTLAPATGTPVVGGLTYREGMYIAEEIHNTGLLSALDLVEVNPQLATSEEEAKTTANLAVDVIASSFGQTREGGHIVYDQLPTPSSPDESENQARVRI
Procedure: Unpurified anti-ARG2 scFv fragments from periplasmic preparations were screened in an ARG2 enzyme inhibition assay using a Pherastar plate reader (BMG Labtech, Germany). In this assay, the ability of unpurified scFv to inhibit the enzymatic activity of trimeric ARG2 was determined by measuring the production of urea, the product of L-arginine turnover by ARG2.
Selection outputs were screened as unpurified bacterial periplasmic extracts containing scFv, prepared in 200 mM TES buffer pH 7.4, 0.5 mM EDTA and 0.5 M sucrose. 10 μl of unpurified scFv were added to a Greiner Bio-One® 384 well assay plate (Greiner Bio-one, UK; cat: 781901). […]
Urea was detected by the simultaneous addition of equal volumes of O-Phthaldialdehyde (1.5 mM O-Phthaldialdehyde, 7% H2SO4, 0.03% Brij L23) and N-(1-Napthyl)ethylenediamine (1.66 mM N-(1-Napthyl)ethylenediamine, 81 mM Boric acid, 21% H2SO4, 0.03% Brij L23) followed by an 18 minute incubation at room temperature before the colorimetric product was quantified on the Pherastar by measuring absorbance at 505 nm. […]
Data were analysed by calculating % maximum (max) control for each sample using the 505 nm absorbance data. % max control was determined according to equation 2. […]
Data were again analysed by calculating % Max control values for each sample. […]

[2] = target: T2, ARG2 (Homo sapiens, UniProt P78540); assay: T cell proliferation assay (BrdU, 72 hours) with exogenous ARG2; assay type: cell-based; conditions: In Absence of rhARG2
T2 sequence (P78540 23-354): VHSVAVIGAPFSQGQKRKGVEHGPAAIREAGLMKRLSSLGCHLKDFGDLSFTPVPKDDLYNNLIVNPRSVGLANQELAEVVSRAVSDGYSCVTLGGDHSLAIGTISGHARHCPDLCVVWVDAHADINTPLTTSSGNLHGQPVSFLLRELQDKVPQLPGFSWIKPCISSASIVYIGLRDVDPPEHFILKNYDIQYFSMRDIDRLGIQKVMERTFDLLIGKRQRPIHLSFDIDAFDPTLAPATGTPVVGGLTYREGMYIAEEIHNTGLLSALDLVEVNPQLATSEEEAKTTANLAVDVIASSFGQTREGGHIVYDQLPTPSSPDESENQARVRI
Procedure: This assay served to provide in vitro evidence of functional efficacy for each antibody.
Briefly, Leukocyte cones (NHS Blood and Transplant, Watford, UK) underwent Ficoll Plaque (GE, Sweden; Cat: 17-1440-02) gradient separation, PBMC's were extracted and pan T cell population isolated by negative selection using the Human T Cell Enrichment Kit (Stemcell Technologies, France; Cat: 19051) according to the manufacturer's instructions.
40000 cells/well were seeded in complete growth media (RMPI 1640, 5% Human Serum Albumin) into a 96 well clear TC treated microplate (Greiner-Bio One, Germany; Cat: 655180). T Cells were activated by the addition of ImmunoCult CD3/CD28 (Stemcell Technologies, France; Cat: 10971) at a dilution of 1:40 directly into wells and the plate incubated 37° C., 5% CO2 for 45 minutes.
To determine EC50's of test antibodies, a dilution series was created in sterile TBS at 8× the final assay concentration was added to the assay plate containing cells. Plate was incubated for 30 minutes at 37° C., 5% CO2.
ARG2 was added to relevant wells of the plate at a final concentration of 15 μg/ml. The equivalent volume of ARG2 vehicle and test antibody vehicle was added to relevant control wells. […]
Calculated data was expressed as % of control (Equation 3) and graphical plots were constructed using a four parameter fit and EC50's determined using model 205 in XLFit (IDBS, UK). […]

inhibition of the activity of human trimeric ARG2 ([1]; purified recombinant human IgG1, FIG. 3): inhibited
inhibition of the activity of human trimeric ARG2 ([1]; purified scFv, FIG. 2): inhibited
EC50 [2]: < 0.8 nM
Maximum % Proliferation [2]: 98%
B1: C0020187: anti-ARG2 antibody, parent lead isolation clone, VH SEQ ID NO: 12, VL SEQ ID NO: 17 (antibody, listed as Homo sapiens, V domains shown)
VH: [about 100 residues not given here]LRADLGLYMDLWGRGTLVTVSS
VL: QSVLTQPPSVSAAPGQKVTISCSGSSSNIGNHYVSWYQQLPGTAPKLLIYDNSERPSGIPDRFSGSKSGTSATLGITGLQTGDEADYYCGTWDSSLSALVFGGGTKLTVL
modifications: C0020187
